Experimental data taken from the supplement of paper PMC12632987.
The full ranking holds about 1,800 sequences; the median of “median log2 fold change of GCK-ALFA target abundance (FLAG IP / Myc IP barcode read proportion)” is about 0.14, and the lowest 2% start at about -0.84. Some of the results follow.

T1: TRAF2, Q12933
T1 chain: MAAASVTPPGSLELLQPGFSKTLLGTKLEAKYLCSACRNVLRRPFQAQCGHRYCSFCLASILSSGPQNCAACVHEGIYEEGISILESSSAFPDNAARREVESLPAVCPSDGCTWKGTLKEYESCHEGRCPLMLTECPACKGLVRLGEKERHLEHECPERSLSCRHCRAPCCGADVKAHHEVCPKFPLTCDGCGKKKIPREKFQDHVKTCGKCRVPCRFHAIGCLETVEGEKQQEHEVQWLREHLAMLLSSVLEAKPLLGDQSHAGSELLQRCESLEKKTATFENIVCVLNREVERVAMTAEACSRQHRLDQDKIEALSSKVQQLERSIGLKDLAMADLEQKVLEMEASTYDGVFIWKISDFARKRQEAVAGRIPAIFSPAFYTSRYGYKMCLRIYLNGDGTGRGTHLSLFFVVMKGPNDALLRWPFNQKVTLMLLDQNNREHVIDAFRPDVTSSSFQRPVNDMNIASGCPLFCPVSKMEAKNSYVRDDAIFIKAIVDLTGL

B1: traf2_out_11_155_671 (protein)
chain: EEKQKLNNELVNELTDIADALKAEVTAILEETAAAHPEHAAALAAVRAAGATLSGTSFARRAAQLLRELGLEEAAARVEALLEEAQKKMNEVYKKYEKKL
B2: traf2_out_18_3_1899 (protein)
chain: KEEELKKVTEEIDKIIDEVTAKAREVLDWLAAHAPEVADRVAALRADLDAGAGPFGILEELAELAREAGFEEEAAEIEAFLKEKRKKLQELVEEYEKLRK
B3: traf2_out_13_95_1119 (protein)
chain: SAEVAARIMAIADEMEEKVLAVLEKLLAKAKAAGKAVEEVTAILELAKHGTINEVIHRLKELAKKYPELKAEFDAAIKELEAIRREAGRRVAEILREEEE
B4: traf2_out_19_16_1964 (protein)
chain: AAEELERLREELEEIERRVEELERYFEANEETLTREEASDLLVEVSELRRRAREILQELDRLAPYDPEEVERLRERAEEVIERAQRLANRLVEHYLALRK
B5: traf2_out_11_169_887 (protein)
chain: EEEEKNRKFNDFALELNDEAKKELLEFALKLAKEKGLDVEEVKKIYEENKNKSLSYLASELIRYFKEKGDEEAAKKVLEKYEELKEKINKEGTKKLKELE
B6: traf2_out_18_167_1866 (protein)
chain: SAELQARLDAASDRLVELSEIRRAFRLALEKLEESRELARAVLEEALKKLPDSEELRAALEAFETLSDEEIRAFLEETAERLQKEMNAAYLELERLRAEL
B7: traf2_out_11_131_664 (protein)
chain: MDAVAMARSVAERVDARLAIAEGLSPEERRRLALHALDTVEALAEYLKEHVDEMSKEDIEEAARILRETVERIVALDPAVAPEAEEVLKAIEELLEAAEK
B8: traf2_out_13_95_1099 (protein)
chain: SLELAEKIMEIADRMLDESEAILTELLAKAKEKGIAVEEVQEALHLARTRSINEAIHKLQELSKKYPELKAELDAAIERLEALKREAGREVARLIKEEEE
B9: traf2_out_17_162_1646 (protein)
chain: SELEKKKEELKKKLEELEERVERLEKLSETISEYSKDELSDLIVEASEVKREALLLIQEIDSLKSKLSPEEYEELKSRAEDIVRRAQRVAQKFYDEREKK
B10: traf2_out_12_50_979 (protein)
chain: SEEERQREEDERIAELADRALDEADRIYAETGGDPAAAFARIREEAEANPEKARFLKIVARALRRLFIRRGADPATVDALADETLEFLDEIIEEKVEPPG
B11: traf2_out_11_104_650 (protein)
chain: LTREQARELNDFAMEKRDEALAIARETAAALRAAGHEEEAARVEAVINHPGSGISTIRNTLEELRPRLDPESQKVADAAIAELRALQKEVSDKLNELEAK
B12: traf2_out_16_177_1460 (protein)
chain: ERQKLMDRLVVLSEIRRAARYIVENKEEEAKKHLERARELAEEAGDEEGLEKIKRLEELAKKNTEEAKKEIEELAREAQREAGRLAEEIEKLIKEEAEKE
B13: traf2_out_19_16_1974 (protein)
chain: KEEELKKIEKELKEIREEVRRLEEYFEANEETLTREELSDLLVEASELKRKAQELLEKLKELKDYDPERVEKLEKEAEEIIEEAQRLMNRLVDRYLELLK
B14: traf2_out_11_79_926 (protein)
chain: SELQKELEEILEELERVIERLEEAIENPEDREELVKEIIEELREIYRRVGNLLLRTENTDLGEVATHIRRAIRALEAGKLEEAKRHLEEAAEQVKKIIKE
B15: traf2_out_20_3_2211 (protein)
chain: SELKEEIKKQLAEIKKLLEEAKPGLAPEDYAELQALLKAAEEALEKDPSDALVKLSELKRRLLELADRARAAGDAELAAKLEAAADAANKAANLVYKLLE
B16: traf2_out_13_95_1078 (protein)
chain: SAEANKKIMEIADEMLEKSLKILKELSKKVADNPEMKAAVEEAIHLAETQGINAAIHLLEKLSEANPEYKELLDEAIKKLKEIKEEAGKKVAEILKEEKE
B17: traf2_out_20_3_2212 (protein)
chain: EELRKKVEEELEKIRELLEKAKPRLPEEDYARLKELLERAEEALKEDPSDALVELSELKALLLRLSQEARAAGDEELAALLDEAADAANKAANLVYKILE
B18: traf2_out_6_156_2446 (protein)
chain: MLEKILEETKKKLDELIKKLSEASEEKKIKYISKAAGTVYRALQKLREAGASLEEIKAFSDEILEHVDKKADEYGLDEKTKNLLLASLNAVFDVALEEAK
B19: traf2_out_6_3_2522 (protein)
chain: SEESLLRDARRVLEGMGITTAEQLRRLVKAEVNAVRQLVSRPDTDNATLAGARSVLALSEAIVRVAAETLPDLTEEQRKELLALIEEARALIDAKAAELA
B20: traf2_out_9_108_2594 (protein)
chain: MSEEEKLEKTFKEIEELVKKFIEEVDLTPEQREELEQAIKNARELYEKGLKRTAIILLAIDAARVASKVGEEAVKKLLEELEKIDKIAYNAAKRMVKLLK
B21: traf2_out_11_155_713 (protein)
chain: EEKLKIYQEMVDKNMEIADEALKELEALIEEVAEEDPEVAARLRAVLEESKDAGITTKLLLAIRVLREAGLEEEAARVEKILEEAQKKSNEIAKEAEKKL
B22: traf2_out_11_169_839 (protein)
chain: EEEEKNRKINDFALELNDKAKAELEKFALELAKAAGLDVADIKAIFAANKGKSFSAIAGALIAYFKSQGKEDAAAAVEKKYEELKEEINKKATAFIKSLE
B23: traf2_out_17_162_1478 (protein)
chain: MSPEEELAALEAELEAIEKRVRELEEKLKRLEEMSKEEITDMLVEASELRRRALRLAERFRELAPLIGEERAAALAARAEELAERLQRIANEIYKELEKK
B24: traf2_out_17_162_1584 (protein)
chain: SMLEEELKKLEKELKELKKKLKEFKEELKNLENKSKEELSDLLVEASEAKREARELAVKLEELKPKIGEERAKKLIEEALKIAEEFQKIANELYKEYLKK
B25: traf2_out_20_3_2050 (protein)
chain: EELLKKLEEEMKKLEEKLEEIKKLVDEETAEELEKLLEEVKKAAEKGLEEMLVALSRLRRKLLELAEKAKAEGKEEVAKLLEEAAEYAQRAMNIVYKIIE
B26: traf2_out_18_117_1796 (protein)
chain: SELEKLQEEFEKTLKEFEEELEEAQRVATKLIEKYPKQLPEEAMDAIVEFGEVKRRVQQLVQEAKAHPNDVEKQKKLVEELKKLLEEMKEIKKKLEEILK
B27: traf2_out_9_17_2615 (protein)
chain: SAARKRLAEALLKAIEEELKELVEKGYITEEQAEEILKKVKELIEKGASPDEIIATFLGMVASILLTKSNLSLPEANRIVGEMYRRLRERLAAIEAELAA
B28: traf2_out_13_95_1152 (protein)
chain: SKELAEKINQIADDMLDQVEAKLQALLEKMKAAGKGVEEVQKALDLARYRSVNEAIALLEELSKKYPEFKELFDATIKEIKAIIREAGRKVAELIKEEEA
B29: traf2_out_15_17_1304 (protein)
chain: KISPEKARELTDLALEARDRAKALVAEVLARLEAAGRLTPEQRAELRALLAEPGVSLHVIRDRVAEILRAAGEEALLAEATARLDALIEEVNRKANEMLA

Target: T1, TRAF2, Q12933
Experiment: median log2 fold change of GCK-ALFA target abundance (FLAG IP / Myc IP barcode read proportion) (log2 ratio); each designed protein is fused to an ALFA-tag nanobody in HEK293 cells to bring the named protein to FLAG-tagged glucokinase (GCK); Myc marks an untargeted standard; higher = target protein stabilised (more abundant)
Conditions: target protein: 3xFLAG-MCP-GCK-ALFA reporter; HEK293 landing pad (RPLP)
How it was run: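 Binders fused to an ALFA nanobody were recombined as a library into HEK293 landing-pad cells, which were induced with 2 μg mL^−1 doxycycline and then transfected to express a FLAG-tagged target and a Myc-tagged standard. After 48 h, circular RNA barcodes recovered by anti-FLAG and anti-Myc immunoprecipitation of lysates were reverse transcribed, amplified and sequenced. Each binder's target abundance is the median log2 ratio of FLAG to Myc barcode read proportions, from barcodes present at ≥10^−7 in both replicates, binders carrying ≥3 barcodes per replicate, a 10^−6 pseudocount and pooled replicates.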

Going from B1 to B2, the “median log2 fold change” value rises from 0.285 to 0.766.

Compared with B3, B4 is lower in “median log2 fold change” value: 0.0752 for the first, -0.167 for the second.

B5 and B6 are within 0.2 log units of each other in “median log2 fold change” value: 0.184 for the first, 0.231 for the second.

First: B7
Second: B8
The “median log2 fold change” value of the first is higher: 0.132 for the first, -0.464 for the second.

Going from B9 to B10, the “median log2 fold change” value falls from 0.511 to 0.135.

B11 and B12 are within 0.2 log units of each other in “median log2 fold change” value: 0.221 for the first, 0.0842 for the second.

Going from B13 to B14, the “median log2 fold change” value rises from 0.0352 to 0.243.

B15 and B16 are within 0.2 log units of each other in “median log2 fold change” value: -0.00138 for the first, 0.00315 for the second.

B17 and B18 are within 0.2 log units of each other in “median log2 fold change” value: -0.0318 for the first, 0.168 for the second.

B19 and B20 are within 0.2 log units of each other in “median log2 fold change” value: -0.0799 for the first, -0.22 for the second.

First: B21
Second: B22
The “median log2 fold change” value of the first is higher: 0.458 for the first, 0.0723 for the second.

B23 and B24 are within 0.2 log units of each other in “median log2 fold change” value: 0.337 for the first, 0.178 for the second.

B25 and B26 are within 0.2 log units of each other in “median log2 fold change” value: 0.279 for the first, 0.186 for the second.

B27 and B28 are within 0.2 log units of each other in “median log2 fold change” value: -0.399 for the first, -0.574 for the second.

With B29 the “median log2 fold change” value was 0.112.
